Data: ChEMBL document CHEMBL3885881, “DrugMatrix”
A number of entries come with more than one value. Only these are listed. The source may hold further records. The records of an entry are repeated measurements in other runs, samples, wells, individuals or studies. Marks in square brackets tell the records apart. Letters hold for one entry only.

Organism: Rattus norvegicus
Assay: DrugMatrix - Regimen: Daily Repeat
Type: toxicity, organism-based, Sprague-Dawley
Set-up: regimen Daily Repeat, gender Male, age 6-8 weeks
Conditions: in vivo, 0 mg/kg, dose level Control, vehicle 100 % SALINE
[1] = iv, 120 h, tissue Blood, time 5 day

`C=CCO` [ALLYL ALCOHOL] was tested, and the “ABSOLUTE EOSINOPHIL” value (ip, 72 h, tissue Blood, route intraperitoneal, time 3 day) was 0 CELLS/uL [study A] and 15 CELLS/uL [study B].
In the case of `CC(=O)[C@]1(O)Cc2c(O)c3c(c(O)c2[C@@H](O[C@H]2C[C@H](N)[C@H](O)[C@H](C)O2)C1)C(=O)c1ccccc1C3=O` [IDARUBICIN], the “ABSOLUTE BASOPHIL” value [1] is reported as 0.23 CELLS/uL [study A] and 0 CELLS/uL [study B], the “ABSOLUTE EOSINOPHIL” value [1] is reported as 0.0375 CELLS/uL [study A] and 158.83 CELLS/uL [study B] and the “ABSOLUTE LYMPHOCYTE” value [1] is reported as 12.19 CELLS/uL [study A] and 13517.17 CELLS/uL [study B]. The “ABSOLUTE MONOCYTE” value [1] was 0.66 CELLS/uL [study A] and 352.67 CELLS/uL [study B], the NEUTROPHIL [1] was 30.45% [study A] and 7.17% [study B] and the LIPASE (iv, 120 h, tissue Plasma, time 5 day) was 50 u/L [study A] and 8.67 u/L [study B].
